From article PMC4336329 (PLoS ONE, 2015)
Hit rate of the full screen: of about 310,000 compounds, about 14,000 (4.5%) showed an effect of 50% or more. The effect is printed as a negative number. The list shows a part of the results.

biological target: human ether-à-go-go-related gene (hERG) potassium channel (human, UniProt Q12809); assay: primary screen, population patch clamp on CHO cells stably expressing hERG
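Also: peak tail current of the secondary pulse compared with the same well before compound.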

Chain of human ether-à-go-go-related gene (hERG) potassium channel (Q12809 whole entry, looked up): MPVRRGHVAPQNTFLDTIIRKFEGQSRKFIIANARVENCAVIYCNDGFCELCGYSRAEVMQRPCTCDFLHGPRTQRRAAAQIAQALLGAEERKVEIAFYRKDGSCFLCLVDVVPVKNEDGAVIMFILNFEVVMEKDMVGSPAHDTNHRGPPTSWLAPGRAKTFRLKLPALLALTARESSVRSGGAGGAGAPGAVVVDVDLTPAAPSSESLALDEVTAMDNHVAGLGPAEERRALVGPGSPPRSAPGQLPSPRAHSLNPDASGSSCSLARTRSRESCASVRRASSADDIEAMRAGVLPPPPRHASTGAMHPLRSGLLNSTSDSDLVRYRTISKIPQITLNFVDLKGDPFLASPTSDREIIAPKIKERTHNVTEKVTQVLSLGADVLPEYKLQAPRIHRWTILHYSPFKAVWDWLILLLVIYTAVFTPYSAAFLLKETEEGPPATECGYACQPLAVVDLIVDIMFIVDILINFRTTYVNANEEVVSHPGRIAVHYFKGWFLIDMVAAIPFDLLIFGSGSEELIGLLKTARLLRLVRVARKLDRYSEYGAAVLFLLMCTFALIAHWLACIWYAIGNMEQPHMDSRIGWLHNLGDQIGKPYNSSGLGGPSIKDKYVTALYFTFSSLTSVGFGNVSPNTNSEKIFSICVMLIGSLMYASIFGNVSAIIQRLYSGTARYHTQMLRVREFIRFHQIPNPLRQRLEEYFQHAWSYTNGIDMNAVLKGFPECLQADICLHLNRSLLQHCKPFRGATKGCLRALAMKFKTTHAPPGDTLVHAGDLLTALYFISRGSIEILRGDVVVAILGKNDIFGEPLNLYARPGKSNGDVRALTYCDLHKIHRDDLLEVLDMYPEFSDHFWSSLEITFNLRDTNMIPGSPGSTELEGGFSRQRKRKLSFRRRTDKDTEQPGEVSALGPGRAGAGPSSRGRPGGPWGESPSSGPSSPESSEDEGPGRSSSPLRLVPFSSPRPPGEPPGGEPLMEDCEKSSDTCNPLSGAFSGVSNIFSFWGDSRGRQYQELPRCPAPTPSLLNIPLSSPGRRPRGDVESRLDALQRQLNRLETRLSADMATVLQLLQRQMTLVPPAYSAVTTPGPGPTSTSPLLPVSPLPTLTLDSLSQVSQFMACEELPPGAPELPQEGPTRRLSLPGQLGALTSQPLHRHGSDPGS

| Compound | hERG current change (%, negative = inhibition) at 10uM [%] |
| --- | --- |
| COc1ccc(C)cc1NC(=S)N1CCN(c2ccccn2)CC1 | -2.19 |
| COc1ccc(NC(=O)CSc2nnc(Cc3ccccc3)o2)c(OC)c1 | 3.61 |
| Cc1ccc2c(c1)C(=O)c1c(C(=O)O)cccc1-2 | -19.9 |
| BrCC1C[n+]2c(SCc3ccccc3)nc3sc4c(c3c2O1)CCCC4.[Br-] (centres unmarked) | -4.88 |
| Fc1cccc(C2NN=C(c3ccccc3)S2)c1 (centres unmarked) | 9.74 |
| Cl.O=C1C2CCN(CC2)C1Cc1ccc(OCc2ccccc2)cc1 (centres unmarked) | -1.16 |
| O=C(CN1C(=O)c2ccccc2C1=O)NCC(=O)OCC(=O)c1ccc(Cl)cc1 | 16.2 |
| CN(C)S(=O)(=O)c1cccc(N2C(=O)CC3(CCCCC3)CC2=O)c1 | 22.2 |
| CCOC(=O)c1c(C)[nH]c(C(=O)COC(=O)/C=C/c2ccc3c(c2)OCO3)c1C | -21.5 |
| CSc1nccc(NC(=O)c2cccc(Br)c2)n1 | -9.46 |
| O=C(C(=O)c1ccc(O)cc1)c1ccccc1 | 14.4 |
| O=C(CCS(=O)(=O)c1ccccc1)Nc1nc2ccc(F)cc2s1 | -20.3 |
| COC(=O)c1ccc(S(=O)(=O)NNC(=O)c2ccc(S(=O)(=O)N3CCCCC3)cc2)cc1 | 0.496 |
| Cc1ccccc1OS(=O)(=O)c1cn(C)c(=O)n(C)c1=O | 11.4 |
| CN(c1cccc(NC(=O)Cc2ccccc2)c1)S(C)(=O)=O | 7.55 |
| C=CCSc1ncc(-c2ccccc2)cn1 | 5.11 |
| CCOC(=O)C(CSCC(=O)c1ccc(Br)cc1)NC(=O)OC(C)(C)C (centres unmarked) | -14.6 |
| COCCNC(=O)CCCn1c(=O)c2cc(OC)c(OC)cc2n(CC(=O)Nc2ccc(C)c(F)c2)c1=O | 14.1 |
| O=C(Nc1ccc2c(c1)OCO2)c1ccccn1 | 10.2 |
| Cc1noc(C)c1C(=O)OCC(=O)Nc1cccc(S(=O)(=O)N(C)C)c1 | 1.59 |
| CCOC(=O)Cc1csc(NC(=O)CSc2nncn2C)n1 | 4.31 |
| CCOc1ccc(-n2c(SCc3ccc(C#N)cc3)nnc2-c2cccnc2)cc1 | -71.9 |
| COc1ccc(NC(=O)N2CCCC(C(=O)NCc3ccccc3F)C2)cc1 (centres unmarked) | -4.05 |

| Compound | hERG current change (%, negative = inhibition) at 10uM [%] |
| --- | --- |
| CC[C@H](C)[C@H](NC(N)=O)C(=O)NCCc1ccc(OC)cc1 | -0.532 |
| Fc1ccc(C2CCCN2Cc2nc(-c3cnccn3)no2)cc1 (centres unmarked) | 5.32 |
| Cn1c(SCC(=O)Nc2cccc(S(=O)(=O)N3CCOCC3)c2)nnc1-c1ccncc1 | -6.8 |
| O=S(=O)(c1cccc(C(F)(F)F)c1)N1CCC(O)(c2cccnc2)CC1 | -4.42 |
| O=C(c1nc(SCc2ccc([N+](=O)[O-])cc2)n2ccccc12)C(F)(F)F | -71.1 |
| CCOc1ccc(S(=O)(=O)N(CC(=O)NCC(F)(F)F)Cc2ccco2)cc1 | -17.1 |
| CC(C)(C)c1ccc(-n2ncc3c2CCCC3NC(=O)CCN2CCCC2=O)cc1 (centres unmarked) | 10.6 |
| CCc1ccccc1N(C(C)=O)c1nc(CN=C=S)cs1 | -17 |
| CCn1c(=S)[nH]c2sc3c(c2c1=O)CCCCC3 | 26 |
| O=C(Nc1cccc(S(=O)(=O)N2CCCCCC2)c1)c1ccc2c(c1)OCO2 | 2.46 |
| CSc1cccc(NC(=O)CNS(=O)(=O)c2ccccc2)c1 | 14.1 |
| O=C(CCCn1c(=S)[nH]c2ccccc2c1=O)N1CCN(c2cccc(Cl)c2)CC1 | 12.9 |
| O=C(O)c1ccc(NC(=O)c2ccco2)c(NC(=O)c2ccco2)c1 | 17.6 |
| CCOc1ccccc1OCCC(=O)OCC(=O)c1ccc[nH]1 | -16.2 |
| Cc1ccc(-c2cc(C(=O)N/N=C/c3ccoc3)c3ccccc3n2)cc1 | 8.98 |
| Cc1ccc(NC(=O)CCc2c(C)nn(-c3ccc(N4CCCCC4)nn3)c2C)cc1C | -5 |
| O=C(CCCOc1ccc(Cl)cc1Cl)N/N=C/c1cccc([N+](=O)[O-])c1 | 9.56 |
| CC(=O)Nc1ccccc1N(CC(O)Cn1c2ccccc2c2ccccc21)S(=O)(=O)c1ccc(C)cc1 (centres unmarked) | 23.6 |
| CN1CCCN(c2ccc([N+](=O)[O-])cc2)CC1 | -66 |
| Cc1nn(CC(=O)NNC(=O)c2ccc(Br)cc2)c(C)c1[N+](=O)[O-] | -26.5 |
| O=C(CCN1C(=O)/C(=C/c2ccccc2Cl)SC1=S)Nc1cccnc1 | 4.14 |
| O=C(NN1S(=O)(=O)c2ccccc2S1(=O)=O)c1ccc(Br)cc1 | -25 |
| COc1ccc(COC(=O)C2=C(C)NC(=O)NC2c2ccccc2OC(C)C)cc1 (centres unmarked) | -0.138 |

| Compound | hERG current change (%, negative = inhibition) at 10uM [%] |
| --- | --- |
| COc1ccc(C(=O)NCC(=O)OCC(=O)NC(=O)c2ccc(C(C)(C)C)cc2)cc1OC | -23.7 |
| CCC(=O)N1CCc2cc(S(=O)(=O)NCCCOC)ccc21 | 8.18 |
| COc1ccc(/C(N)=N/OC(=O)c2ccc(C)c([N+](=O)[O-])c2)cc1 | -6.61 |
| CC(=O)Nc1ccc(OCC(O)CN2C(C)(C)CC(O)CC2(C)C)cc1 (centres unmarked) | 3.95 |
| O=C(Nc1nc(-c2ccncc2)cs1)c1ccco1 | 2.66 |
| COc1ccc(OC)c(NC(=O)c2cccnc2Sc2ccccc2)c1 | -1.6 |
| O=C(CCc1ccccc1)NCc1cccnc1 | -4.75 |
| CC1(C(=O)OCC(=O)N2c3ccccc3Sc3ccccc32)CC1(Cl)Cl (centres unmarked) | 1.36 |
| Cc1ccc2c(c1)nnn2C1CCN(C(=O)c2cccs2)CC1 | -48.6 |
| N#Cc1cccc(NC(=O)COC(=O)c2cccc(N3C(=O)c4ccccc4C3=O)c2)c1 | -1.41 |
| COc1ccc(Cc2noc(CN3CCC(c4ccncc4)CC3)n2)cc1OC | -20 |
| CCS(=O)(=O)c1ccc2oc(=O)c(/C=C(\O)c3ccc(Cl)cc3)nc2c1 | 18.2 |
| COc1ccccc1CNC(=O)N1CCN(c2ccccc2C)CC1 | 6.36 |
| Cn1c(CN2CCOCC2)nnc1SCC(=O)Nc1cc(Cl)ccc1Cl | -7.99 |
| Cc1ccccc1C(=O)N1CCN(c2ccc(NC(=O)CSc3ccc(Cl)cc3)cc2)CC1 | -9.85 |
| CC(=O)c1ccc(NC(=O)C2CCC(C)NC2=O)cc1 (centres unmarked) | -7.61 |
| O=C(CSC(=S)N1CCCCC1)Nc1ncc2c(n1)CC(c1ccco1)CC2=O (centres unmarked) | -41.3 |
| c1ccc(NCc2ccccn2)cc1 | 16 |
| COc1ccc(CNC(=O)COc2cccnc2[N+](=O)[O-])cc1OC | 13.5 |
| CCc1ccccc1NC(=O)CN(C)C(=O)CSc1nc2cc(Cl)ccc2s1 | 17.8 |
| Nn1c(SCC(=O)Nc2nnc(-c3ccccc3)o2)nnc1C1CC1 | 6.36 |
| CCCn1nc(C(=O)OCC(=O)Nc2ncc(Cl)c(C)c2Cl)c2ccccc2c1=O | -3.02 |
| CCOc1ccc2nc3ccc4[nH]onc4c3c2c1 | 7.72 |

| Compound | hERG current change (%, negative = inhibition) at 10uM [%] |
| --- | --- |
| COc1ccc(C(=O)/C=C/NCc2ccc(C)cc2)cc1 | -17.2 |
| Cc1cc(CNC(=O)CC2C(=O)NCCN2Cc2ccccc2C(F)(F)F)on1 (centres unmarked) | 10.1 |
| FC(F)Oc1ccc(NC(=S)NCCc2ccccn2)cc1 | -12.7 |
| CN(C)C1(CNC(=O)c2cccc(S(=O)(=O)NCc3ccccc3)c2)CCCCC1 | -49.5 |
| Cl.N=c1ccn(Cc2ccc(Cl)cc2Cl)cc1 | -15.2 |
| O=C(Nc1ccccc1N1CCOCC1)c1ccc([N+](=O)[O-])cc1 | -8.59 |
| Cc1ccc(S(=O)(=O)N=Nc2c(O)[nH]c3ccccc23)cc1 | 13.1 |
| O=C(ON=C1CCN(c2ccc([N+](=O)[O-])cc2)CC1)c1ccccc1 | -47.5 |
| O=C(Nc1cccc2ccccc12)N1CCN(Cc2ccc3c(c2)OCO3)CC1 | -26.4 |
| c1ccc(CCNC2=NCCCS2)cc1 | -3.85 |
| O=S(=O)(Nc1ccccc1Cl)c1ccc(F)cc1 | -1.63 |
| CCCNC(=O)c1nc(C)n(-c2cc(Cl)cc(Cl)c2)n1 | -13.3 |
| COC(=O)CCC(=O)Nc1cccc(C(=O)Nc2cccc(Cl)c2)c1 | -22.4 |
| CCONC(=NC)c1nonc1N | 20.7 |
| COC(C(=O)NC1CC1)c1ccccc1 (centres unmarked) | 17 |
| COc1ccc(C(=O)NCCCN2CCOCC2)cc1Br | 3.34 |
| CC(C)Nc1ncnc2c1cnn2-c1ccccc1 | -8.11 |
| Cc1ccc(/C=C2\SC(=O)N(CCNC(=O)C3CSC4(C)CCC(=O)N34)C2=O)cc1 (centres unmarked) | -45.6 |
| CCn1c(SCc2cc(=O)n3ccsc3n2)nc2ccccc21 | -36.3 |
| Cc1cccc(N2CC(C(=O)Nc3ccc(S(=O)(=O)N4CCCCC4)cc3)CC2=O)c1C (centres unmarked) | 13.1 |
